# From a collection of fitness landscapes (doi:10.1016/j.celrep.2020.107928)
# In all, about 81,000 sequences were measured (“one-hybrid fitness for binding NBS DNA”: median about -0.1, highest 2% from about 0.36 on). This is one part of the list.
# B1: Caulobacter ParB omega fusion; a variant is named by its letters at X, in order, B8GW30 (parent)
# chain: MESVVVGEPGMSEGRRGLGRGLSALLGEVDAAPAQAPGEQLGGSREAPIEILQRNPDQPRRTFREEDLEDLSNSIREKGVLQPILVRPSPDTAGEYQIVAGERAWRAAQRAGLKTVPIMVRELDDLAVLEIGIIENVQRADLNVLEEALSYKVLMEKFERTQENIAQTIGKSXSHVANXMRLLXLPDEVQSYLVSGELTAXHARAIAAAADPVALAKQIIEGGLSVRETEALARKAPNLSAGKSKGGRPPRVKDTDTQALESDLSSVLGLDVSIDHRGSTGTLTITYATLEQLDDLCNRLTRGI
# Variants of: B1
# Test: one-hybrid fitness for binding NBS DNA (the Noc-binding site; scaled: cognate 1, non-cognate 0); higher = stronger binding
# Details: with NBS DNA site
# Procedure, shortened: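 Fitness here means the log change in variant-to-wild-type read ratio between plasmids sequenced before and after selection. That scale was set so cognate equals 1 and non-cognate equals 0. The selection was a bacterial one-hybrid screen of Caulobacter ParB libraries, four specificity codons randomised, in E. coli USO carrying a HIS3 reporter with the site 19 bp from the promoter, grown 48 hours at 37°C on M9-minus-histidine with 0.1 mM IPTG and 5 mM 3-AT.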
row,Variant,one-hybrid fitness for binding NBS DNA
1,SAMG,≤ 0.2
2,IFLT,≤ 0.2
3,DFQV,≤ 0.2
4,RFIF,≤ 0.2
5,SGTD,≤ 0.2
6,LEPF,≤ 0.2
7,HTWL,≤ 0.2
8,TKCA,≤ 0.2
9,QWVD,≤ 0.2
10,PGCL,≤ 0.2
11,VSQT,≤ 0.2
12,SIAN,≤ 0.2
13,RCNA,0.298
14,SKLK,≤ 0.2
15,CAYS,≤ 0.2
16,RTPF,≤ 0.2
17,APVA,≤ 0.2
18,CHTM,≤ 0.2
19,TQAQ,≤ 0.2
20,MGMA,≤ 0.2
21,VVGI,≤ 0.2
22,WDTA,≤ 0.2
23,NWNG,≤ 0.2
24,VRQG,≤ 0.2
25,RERS,≤ 0.2
26,KDLL,≤ 0.2

row,Variant,one-hybrid fitness for binding NBS DNA
1,FYSG,≤ 0.2
2,FYHC,≤ 0.2
3,QIQF,≤ 0.2
4,WAKV,≤ 0.2
5,RFKY,≤ 0.2
6,AWLF,≤ 0.2
7,SEVT,≤ 0.2
8,HRKK,≤ 0.2
9,VYRW,≤ 0.2
10,IHYT,≤ 0.2
11,HNRE,≤ 0.2
12,PKPK,≤ 0.2
13,QPIS,≤ 0.2
14,HHLC,≤ 0.2
15,PYMG,≤ 0.2
16,VLKK,≤ 0.2
17,KHCR,≤ 0.2
18,VNLK,≤ 0.2
19,QDLP,≤ 0.2
20,EDCR,≤ 0.2
21,PPET,≤ 0.2
22,ANKK,≤ 0.2
23,NAQS,≤ 0.2
24,HDST,≤ 0.2
25,IGMD,≤ 0.2
26,HPLM,≤ 0.2

row,Variant,one-hybrid fitness for binding NBS DNA
1,QMER,0.324
2,EIYS,≤ 0.2
3,LHAT,≤ 0.2
4,QMWP,≤ 0.2
5,YDGM,≤ 0.2
6,VTKP,≤ 0.2
7,PKRE,≤ 0.2
8,PGAD,≤ 0.2
9,VDTF,≤ 0.2
10,TSLA,≤ 0.2
11,AAIY,≤ 0.2
12,LKPY,≤ 0.2
13,QLEH,≤ 0.2
14,FSTA,≤ 0.2
15,MAPP,≤ 0.2
16,MFTT,≤ 0.2
17,SFRT,≤ 0.2
18,GPNC,≤ 0.2
19,MASA,≤ 0.2
20,SDPI,≤ 0.2
21,SDPK,≤ 0.2
22,YQLN,≤ 0.2
23,GVCW,≤ 0.2
24,HMAV,≤ 0.2
25,LGPM,≤ 0.2
26,GRPA,≤ 0.2

row,Variant,one-hybrid fitness for binding NBS DNA
1,PAKG,≤ 0.2
2,ETAK,≤ 0.2
3,QDWY,≤ 0.2
4,FIRR,≤ 0.2
5,IALD,≤ 0.2
6,CNTC,≤ 0.2
7,NWYR,≤ 0.2
8,WTPR,≤ 0.2
9,NKSC,≤ 0.2
10,HTMV,≤ 0.2
11,CTFR,≤ 0.2
12,CVCT,≤ 0.2
13,ELEP,≤ 0.2
14,RMPW,≤ 0.2
15,RNMW,≤ 0.2
16,WQNG,≤ 0.2
17,PVHA,≤ 0.2
18,VTSA,≤ 0.2
19,GAVN,≤ 0.2
20,RKFW,≤ 0.2
21,LYWA,≤ 0.2
22,QIHS,0.281
23,YHSW,≤ 0.2
24,SPYL,≤ 0.2
25,WGPR,≤ 0.2
26,GTWR,≤ 0.2

row,Variant,one-hybrid fitness for binding NBS DNA
1,QKQK,≤ 0.2
2,QRPF,≤ 0.2
3,SKCM,≤ 0.2
4,KKDG,≤ 0.2
5,IMFG,≤ 0.2
6,LANS,≤ 0.2
7,DDQL,≤ 0.2
8,TARG,≤ 0.2
9,TVYR,≤ 0.2
10,FRVA,≤ 0.2
11,YENS,≤ 0.2
12,SQDL,≤ 0.2
13,YTGG,≤ 0.2
14,VTQR,≤ 0.2
15,SDYQ,≤ 0.2
16,SPPS,≤ 0.2
17,SAWV,≤ 0.2
18,QSVD,≤ 0.2
19,KDRW,≤ 0.2
20,ITVR,≤ 0.2
21,SIHC,≤ 0.2
22,RKYK,≤ 0.2
23,QQKT,0.811
24,EAVQ,≤ 0.2
25,QMPF,≤ 0.2
26,GNPI,≤ 0.2

row,Variant,one-hybrid fitness for binding NBS DNA
1,TQRK,≤ 0.2
2,SRLI,≤ 0.2
3,TYPW,≤ 0.2
4,LQMR,≤ 0.2
5,GFSL,≤ 0.2
6,RRPM,≤ 0.2
7,SCKR,0.221
8,PDYV,≤ 0.2
9,PFPA,≤ 0.2
10,SQLK,≤ 0.2
11,AWDT,≤ 0.2
12,YRTR,≤ 0.2
13,EHEN,≤ 0.2
14,VVNI,≤ 0.2
15,FLEM,≤ 0.2
16,NYPT,≤ 0.2
17,TELW,≤ 0.2
18,NQMN,≤ 0.2
19,VHHW,≤ 0.2
20,ANAD,≤ 0.2
21,PTQE,≤ 0.2
22,HQTS,≤ 0.2
23,RKPI,≤ 0.2
